From the supplement of paper PMC10185492
The other results are listed elsewhere or left out. Read counts after selection give these values, which scatter widely.

Tested on: SARS-CoV-2 3CLpro (nsp5)
Experiment: substrate phage enrichment score (protease-eluted vs HEPES control, +1 offset) (ratio); higher = better cleaved substrate
Conditions: selection round: 4; protease elution time: 15 min
Experimental: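 Random heptapeptide substrate phage display (M13 pIII fusion, heptapeptide between an N-terminal biotinylated AviTag GLNDIFEAQKIEWHE and pIII; phages immobilised on streptavidin) eluted by cleavage with 50 nM protease in 20 mM HEPES at 37 °C. Selected phages were NGS sequenced, and the enrichment score is (reads in protease sample + 1)/(reads in HEPES blank-selection control + 1).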

Substance	substrate phage enrichment score
MNFQGGS	4.6
TCNWMLK	0.227
YPYFQGG	3.33
EVTCTPW	1
APEASPN	0.4
ETQSMFR	2.62
CDNETMT	> 39
SGQVRQC	0.829
WRASYNE	2.3
PGAAHHH	1.06
RAYDQLN	1.08
NVDDLPR	0.381
TRCTGHL	> 40
GYHASCQ	0.545
CKLQCSN	> 51
QVPVSMH	38.6
NHHVQGC	> 26
AGGCVRD	1.82
SSHRKNG	4.4
TARPMTG	0.524
QLDCLRP	2.71
TQMCPRP	0.778
AWPSVVP	> 100
QIQCATQ	6.91
RPETKQG	> 28

Substance	substrate phage enrichment score
CSLMSMF	> 39
DGAAHHH	0.316
TTSPLWP	1.18
PTDVGAR	> 30
SIEHFQG	3.58
WPPVQLQ	> 181
LLPHIII	0.857
NSRAVTH	12.5
AYKTSHM	0.087
VPDKSSR	1.47
ESASILQ	> 234
RVQCPRC	> 30
ASQKRPR	> 25
GGAAHHH	0.722
WNRRDEP	3
RDIRHSR	> 49
HTLKEES	0.0952
EMYFQGG	0.923
PQVIEQH	1.77
NATQPTR	3.43
LISDNLP	> 39
QPGYGSC	> 41
CSPRSRP	> 78
ISAPEAH	1.83
SPSRTPC	14

Substance	substrate phage enrichment score
ACKREHW	0.706
TEHSQNR	> 25
TCRSLKE	> 35
VRVIRMG	2.56
SGNSRLN	> 47
AHRCRLQ	10.5
TPTAASQ	> 45
HKAASSC	0.114
APSVTGS	0.846
LVTPWSH	1.16
ISGAHSQ	> 33
AECCGMP	23
FDQKKAP	1.2
VVQGTAT	0.179
ANTLLQS	> 21
GRSKAER	> 24
HGTNVFR	> 74
HCSDCAG	1.54
SQGGSAA	0.761
DNRSLLQ	> 24
QNLMCHY	1.53
LRCGKDW	2.33
ARGVHLQ	> 126
SAPRPDA	1.23
SNRRSPT	3.86

Substance	substrate phage enrichment score
PTCFCRS	> 23
ETLNCPY	0.923
ACGVRPT	1.7
CMLGQFG	> 25
VTRGNAS	10.5
DCPAAHH	> 28
VVSGGGF	2
AGTPRAK	> 32
RTLSPLT	6
VANTYGC	> 240
ASNPASL	6.6
TARSRQC	> 21
SDRVWLQ	> 63
WPSAAAH	0.107
APDRASC	> 56
SESCGSS	> 29
RHCICLP	> 26
GLTTTPW	2
RCRHLEA	1.86
IAAAHHH	0.606
ANTQIGG	> 27
ADSLRYW	0.5
DLLRESA	1.2
TDSTSAN	> 28
ADAHHHH	0.345

Substance	substrate phage enrichment score
GWYVKPP	2.14
RLPTVFE	2.92
ARCGAAA	> 47
ANERWSD	2
SKKSSHE	0.8
NAVLHGQ	> 23
DALRALR	> 22
LPNFQGG	9.83
CEHEMRT	> 25
AKLTPEH	0.4
AREEFDW	0.688
TNLSNSL	13.8
CSKETRG	15
SIEAKEF	0.0833
GAKVQLQ	> 261
ALRCSTW	> 30
GCADTFD	0.643
GQAAHHH	0.528
RAKCTYH	> 34
KGGSAAA	1.02
IKHELSC	3.59
CVPTAKG	1.92
SKLQGAN	13.8
YLDPSLP	> 65
SHWRPFR	> 22

Substance	substrate phage enrichment score
ERNCRLQ	> 59
AKSYSRC	8.8
PSSRAQS	> 25
KWEKNKP	1.82
DSMNSED	> 29
QGRSSTT	1.12
RWPITNS	11
RKEAIAP	> 32
SGHVSGT	0.714
SKLPVSS	> 40
TCGAGAI	0.467
ACYRING	> 30
PQLKSLD	4.97
ERIDKRD	> 21
TRVTEPT	0.222
HGNSAGS	1.56
HKRCQFW	3
HFSEFGR	> 98
HCVTQRR	> 21
PKDCSVR	> 27
VSRDPAP	> 65
DRAGTDH	0.719
EFRKPSR	14
RHPGDLV	4.05
ATQRSRD	7.33

Substance	substrate phage enrichment score
VSFQGGS	2
RETTFPW	0.923
LPGVGMW	2
RQCEPGT	2.13
GPDCNVR	11.5
PGSQMHC	1.16
ESRGMPN	2.4
QGTSSLQ	0.278
MRRVPPG	> 23
SNRTNAH	> 25
LYSEDMS	0.185
KPLLQSE	> 24
PGQTCRR	0.902
LGKKPDH	1.15
AARLQCS	80.5
SRTRLRP	> 23
RHLTGGQ	1.42
HHHGELR	> 191
FKCPASS	> 34
TTDNDLR	> 24
TYLQGGS	85.5
RYMNVPE	2.43
LLPKAPE	0.929
AVQSGEY	0.786
SASISSE	> 29

Substance	substrate phage enrichment score
EKATSFG	0.263
AAAQQQH	1.89
VMFQADF	> 145
DALPEPS	0.4
TRGLSAP	> 34
REESSAH	> 27
PQVEQPY	14.9
HTKPAAR	2.33
NKPDLIW	25.5
VLSPQTK	> 61
KSNSPYD	> 24
RKTGDAT	> 24
LVAPKTA	1.27
TDHDRQY	1.82
ARPGDYV	3.4
THSHRQG	11
AGHVNLQ	> 239
MTSDLVG	> 22
AIRFEGD	3.73
ARERVPG	> 81
QPYPHLQ	> 28
RETGVLV	1.8
ALHVCTG	3.4
AAAHNHH	1.23
NYSRCPR	> 27

Substance	substrate phage enrichment score
ARCVLQY	> 40
SISGAQN	> 21
HQPIHAP	> 38
TGGSAAA	0.333
RSHSTVQ	> 52
TAQRTGR	0.6
SSTDGLR	> 23
SSLMTEQ	> 60
VIGPAST	1.45
SPTEGKV	0.5
SPQWNPY	1.2
GRAAHHH	0.941
SDMTHPS	> 29
VASSIVQ	4.5
KRNANEQ	> 26
DKVNESR	2.3
KPSSLQS	159
SSESNGS	0.265
EQVGRNR	> 22
ASKGQAT	> 30
GPTIYED	2.1
SFEASHR	8
GIYDMRD	1
RDAAHHH	0.28
CHCEATT	> 47

Substance	substrate phage enrichment score
LKSDTRT	> 23
SSRQGHA	> 30
WCTVSDR	> 74
QKQVYSS	2.67
HRHIGEQ	10.2
HMSNHHH	15
DDKSLLH	12.7
CNYSKGG	> 22
ASVFEDG	0.133
VRTDGSA	> 25
VQSNMIP	> 21
TDDYGGS	> 21
HSRYGCN	4.2
CPQRTLP	0.571
ARQDGLT	> 29
CHRITSR	1.08
ASQAALQ	> 61
PRTQMSR	15.5
NSSHLTR	0.833
NEMRTNR	0.28
DCWTDRD	0.714
NKAAHHH	2.12
RAMPCNR	7.6
CERFQGY	1.43
SEQLSAP	0.983

Substance	substrate phage enrichment score
SLYLETP	> 27
RPHIIIT	0.77
DTCPQDD	1.09
NETRPKW	15
GPHKATR	7.67
GISQGAL	> 219
KCDDQSC	0.667
WPMCFPP	> 57
NKHLQTQ	> 28
WRPARNT	10.5
VRPPIII	2.38
FSKPATV	> 31
SKGTDKR	10
GPTAAEV	> 33
VRTLTTN	2.29
HPQPNPP	> 37
SHPLHRD	> 22
QGYEPVQ	4.79
RAEPPTN	> 27
PSHALPD	16
NTWQDFT	17
RQGTASS	6.43
RSAAAHH	0.774
NPQALRY	0.294
PSIPLNP	5.57

Substance	substrate phage enrichment score
NSIQQES	> 37
SWYVGAP	0.5
TSSCTPR	0.632
RPTATDP	0.846
TGSRSAD	3.6
AISAPES	14
SAAPHQQ	1.83
SEEGVLY	0.793
YQKSTLQ	95.1
PSLRART	2.29
DSWQLRN	> 50
PALQSGS	> 138
EAKCAFG	33.5
SRAHCAR	> 74
CPSQKHH	6.38
AHGRNEN	1.38
RCAQIEE	> 29
TWSTQLQ	> 23
RCTVLQS	> 255
YLREPER	> 43
HGVSMLQ	> 43
PETSDIS	4.2
LSKTRLH	> 29
ATRALLQ	> 529
RDVSGLT	> 29

Substance	substrate phage enrichment score
VGMQGRC	4.9
SALRTDA	1.25
PNLQGGS	2.67
IEILQYK	> 65
EKITMQA	2.56
KELTAGT	3.69
TQQRLTH	0.316
LNGTINR	1.33
KGAAHHH	0.867
RTAAHHH	0.91
TGSVCFQ	> 48
VLREPVG	1.82
NRAGQYG	1.28
CYSPYEW	15.3
CQPNMFM	84.5
PCEMNNA	> 27
APINWQG	19.5
RGRTYES	3.11
ERSPALG	2.55
PNVSVLQ	54.5
PRSVNDS	0.295
SAAAHYH	0.576
DYRPSKT	3.44
VRHDVIV	5.5
LPGTGTG	> 21

Substance	substrate phage enrichment score
TSAKMSS	4.83
ISEPQAW	1.28
CSAAHHH	0.474
RLQSGNR	71.3
SGAPCSH	> 32
PCEAENK	0.733
SQQHFQG	0.474
PVKVRLQ	> 43
YGLRELK	3.67
SLCSFSL	> 23
KEQAGKI	4.55
CAAAPHQ	1.58
INPQKRP	> 39
TCSMRDW	> 23
RSPQRLT	> 57
RAPVGMP	> 32
EPIRPKC	3.12
ENYSDSY	7.67
SAAPQHH	1.36
VSSGGLV	> 22
RLNFQGG	2.62
AQALTGR	7.67
IRSGCPT	13.5
DAHDDYR	8.5
CHPTLLQ	> 23

Substance	substrate phage enrichment score
AQDTGAS	2.43
IRSTTNE	3.17
GRTSQLQ	> 150
VTRSTLH	> 93
SCILQAR	39
SHVGSCR	> 40
APAGSRT	1
AEMPDPR	> 26
AEGTMPC	> 35
EIRGFYD	2.37
HTRLQAR	> 25
VPSDKPP	0.667
VEHFDVK	0.5
LRNWHST	4
LEAWPQS	1.88
RLMRNAP	1.38
MPNGVLT	2.38
